PubChem BioAssay AID2546 (National Center for Advancing Translational Sciences (NCATS), 2010)
The whole screen tested about 310,000 compounds, of which about 11,000 (3.5%) were called active. Inconclusive means that the source gave no clear call. Such entries were picked first, then a sample of the others. The call rests on the fitted dose curve; in most records, active means well fitted inhibition curve with a large enough effect; inconclusive means small, poorly fitted or top-dose-only effect, or effect the other way; inactive means flat fitted curve, though single readings scatter. Potencies of inconclusive entries are left out as doubtful fits.

Experiment: VP16 counterscreen qHTS for inhibitors of ROR gamma transcriptional activity;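 further: Gal4-VP16 expression switched on by copper sulfate through the metallothionein promoter; nearly all actives have a fitted effect of over 50% in size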
Conditions: Drosophila S2 Gal4-VP16 UAS-luciferase, luminescence, 20 h; activity, negative = inhibition: at 53.6 µM (top of the series)
On the % scale 0 is the no-effect control and ±100 the full control effect; potency means the concentration at half of the fitted maximal effect; tags describe the fitted curve by direction and shape.

Compound	Potency	activity, negative = inhibition
COc1ccc(CC(=O)NNC(=S)Nc2ccccc2)cc1Br	inconclusive [inhibitor, single point]	–
Cc1cccc(NC(=O)c2ccc([N+](=O)[O-])s2)c1C	inconclusive [inhibitor, partial curve, poor fit]	–
Cc1ccc(-n2c(C)cc(C(=O)CSc3nnc4ccccn34)c2C)cc1	inconclusive [inhibitor, single point]	–
O=C(CSc1nc2ncc(Cl)cc2[nH]1)Nc1cccc(F)c1	inconclusive [inhibitor, single point]	–
COc1ccc(CCN=C(NS(=O)(=O)c2ccccc2)c2ccccc2)cc1OC	–	inactive: -0.981%
CC(C)OC(=O)/C(=C\c1ccc2c(c1)c1ccccc1n2C)NC(=O)c1ccccc1	inconclusive [inhibitor, single point]	–
Cc1ccc(S(=O)(=O)N(CCC#N)C2CCCCC2)c2nsnc12	–	inactive: 1.52%
COc1cnc(-c2ccccn2)nc1N(C)c1ccccc1	inconclusive [inhibitor, single point]	–
Cc1ccc2nsnc2c1NC(=O)c1ccccc1[N+](=O)[O-]	inconclusive [inhibitor, partial curve, poor fit]	–
O=C(Nc1ccc(Cl)c([N+](=O)[O-])c1)C(Sc1ccccc1)c1ccccc1 (stereo unspecified)	inconclusive [inhibitor, single point]	–
CCC(CC)c1nnc(NC(=O)c2cc(C(=O)OC)cc([N+](=O)[O-])c2)s1	inconclusive [inhibitor, single point]	–
Cc1cccc(NC(=S)NCc2ccccc2)c1C	active: 5.62 µM	–
Cc1ccc2sc(NNC(=O)C3=COCCO3)nc2c1C	inconclusive [inhibitor, single point]	–
COc1ccc(C2CCCN2C(=O)Nc2ccc(C)c(C)c2)cc1OC (stereo unspecified)	–	inactive: 15.6%
CC(=O)Nc1ccc(S(=O)(=O)Oc2ccc(/C=N/NC(=O)c3ccc(Cl)cc3)cc2)cc1	inconclusive [inhibitor, single point]	–
O=S(=O)(Nc1cccnc1)c1ccc(C2CCCCC2)cc1	inconclusive [inhibitor, single point]	–
CCOC(=O)C1=C(CC)OC(N)=C(C#N)C1c1ccsc1 (stereo unspecified)	inconclusive [inhibitor, single point]	–
COc1cccc(CN2CCN(Cc3nc(C(C)C)cs3)CC2CCO)c1 (stereo unspecified)	inconclusive [inhibitor, single point]	–
CCC/C=C(\CCC)C(NS(=O)(=O)CC12CCC(CC1=O)C2(C)C)c1ccc(C(=O)OC)cc1 (stereo unspecified)	–	inactive: -20%
CCOC(=O)c1ccc(NC(=O)Cn2nnc(-c3ccccc3)n2)cc1	–	inactive: -6.92%
Cc1cccc(NC(=O)CN2CCc3cc4c(cc3C2C)OCCCO4)c1 (stereo unspecified)	–	inactive: -17.1%
Cn1c2c(c(=O)n(C)c1=O)C1(C(=O)Nc3ccccc31)C(C#N)=C(N)O2 (stereo unspecified)	inconclusive [inhibitor, single point]	–
CCN1CCCC1CNS(=O)(=O)c1c(C)cc(C)cc1C (stereo unspecified)	–	inactive: -5.61%

Compound	Potency	activity, negative = inhibition
O=C(Nc1nc2cc3c(cc2s1)OCO3)C1=COCCO1	active: 3.98 µM	–
COc1ccc(N2C(=O)CC(Sc3nc(C)cc(C)c3C#N)C2=O)cc1 (stereo unspecified)	inconclusive [inhibitor, single point]	–
COc1cc(OC)c2c(C)cc(=O)oc2c1C(CCN1CCN(c2ccccc2)CC1)c1ccc2c(c1)OCO2 (stereo unspecified)	–	inactive: 3.06%
O=C(Nc1cccc(C2=NCCN2)c1)Nc1cccc(C2=NCCN2)c1	–	inactive: 4.9%
CCc1ccccc1S(=O)(=O)Cc1ccc(C(=O)NCCc2ccccc2)o1	inconclusive [inhibitor, single point]	–
Cc1cc(-c2ccccc2)nc(N/N=C/c2ccccc2F)n1	active: 17.8 µM	–
C#CCOC(=O)CCCC(=O)Nc1ccccc1OC	–	inactive: -5.68%
Cc1cccc(N2CCN(c3ccc(N4C(=O)CCCC4=O)cc3[N+](=O)[O-])CC2)c1C	inconclusive [inhibitor, partial curve]	–
Cc1ccc2nc(C)c(CN3CCN(c4ccc([N+](=O)[O-])cc4Cl)CC3)n2c1	active: 7.08 µM	–
CC(C)(C)c1ccc(Oc2ccc(NC(=O)c3cccs3)cn2)cc1	inconclusive [inhibitor, single point]	–
Cc1ccc2[nH]c3c(N4CCc5ccccc5C4)ncnc3c2c1	active: 3.16 µM	–
N#CCCCS(=O)(=O)c1nnnn1-c1ccc(F)cc1Br	inconclusive [inhibitor, single point]	–
COc1ccc(NC(=S)NNC(=O)CNc2ccc(Cl)cc2)cc1	active: 7.94 µM	–
O=C(COC(=O)c1ccccc1NS(=O)(=O)c1ccc(Cl)cc1)NCc1ccccc1	inconclusive [inhibitor, single point]	–
O=C(Nc1ccc(F)cc1F)c1ccco1	inconclusive [activator, single point]	–
Cc1ccc(NS(=O)(=O)c2ccc(Br)s2)nc1	–	inactive: -24.4%
N#Cc1ccccc1Sc1ccccc1C(=O)Nc1ccc2ccccc2c1	–	inactive: -9.88%
CCN1CCN(C2=C(NS(=O)(=O)c3ccccc3)C(=O)c3ccccc3C2=O)CC1	inconclusive [inhibitor, single point]	–
CCOC(=O)C1CCN(C(=O)c2ccc3c(c2)NC(=O)/C(=C\c2cccc(C)c2)S3)CC1	inconclusive [inhibitor, single point]	–
O=C(Nc1nccs1)c1cc2c(s1)CCCCC2	active: 7.94 µM	–
O=C(Nc1ccccc1F)c1oc2ccccc2c1NC(=O)C1CC1	inconclusive [inhibitor, single point]	–
CC1=N/C(=C/c2ccc([N+](=O)[O-])cc2)C(=O)N1c1ccc(Cl)cc1Cl	inconclusive [inhibitor, partial curve]	–
COCc1ccc(C(=O)NC2CCCc3c2cnn3-c2cc(C)cc(C)c2)s1 (stereo unspecified)	inconclusive [inhibitor, single point]	–
